Source: the supplement of paper PMC4604168 (melanoma cell lines)
The other results are listed elsewhere or left out. Most values come without repeats; read them as rough.

Test system: WM1745
Assay: cell count relative to DMSO control; melanoma cells; higher = more viable cells
Settings: library dose: low library concentration; 72 h
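Note: cell number obtained by counting DAPI-stained nuclei in high-throughput microscope images with image analysis software, screen run in 1,536-well plates.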

Which cell count does the source give for Nc1nc(F)nc2c1ncn2[C@@H]1O[C@H](CO)[C@@H](O)[C@@H]1O [fludarabine] + NC(=O)Nc1cc(-c2cccc(F)c2)sc1C(=O)N[C@H]1CCCNC1 [AZD7762] (first compound 0.2 µM, partner dose 0.02 µM) here?
Its cell count is 86.3%.

Which cell count does the source give for Nc1nc(F)nc2c1ncn2[C@@H]1O[C@H](CO)[C@@H](O)[C@@H]1O [fludarabine] + COc1cc(Nc2ncc(F)c(Nc3ccc4c(n3)NC(=O)C(C)(C)O4)n2)cc(OC)c1OC [Tamatinib] (first compound 0.2 µM, partner dose 0.4 µM) here?
Its cell count is 70.2%.

Nc1ccn([C@@H]2O[C@H](CO)[C@@H](O)C2(F)F)c(=O)n1 [gemcitabine] + O=C(Nc1cccc(Cl)c1)Nc1ncc(CCNc2ncnc3ccsc23)s1 [SNS314] (first compound 0.0004 µM, partner dose 0.0008 µM) was tested. Which cell count did it give?
The cell count was 53%.

How did the cell count turn out when CC(=O)O[C@@]12CO[C@@H]1C[C@H](O)[C@@]1(C)C(=O)[C@H](O)C3=C(C)[C@@H](OC(=O)[C@H](O)[C@@H](NC(=O)OC(C)(C)C)c4ccccc4)C[C@@](O)([C@@H](OC(=O)c4ccccc4)[C@H]21)C3(C)C [Docetaxel] + CC(C)C[C@H](NC(=O)[C@H](Cc1ccccc1)NC(=O)c1cnccn1)B(O)O [Bortezomib] (first compound 0.0001 µM, partner dose 0.001 µM) was run?
Its cell count is 48.2%.

Nc1nc(F)nc2c1ncn2[C@@H]1O[C@H](CO)[C@@H](O)[C@@H]1O [fludarabine] + Cn1c(Nc2ccc(C(F)(F)F)cc2)nc2cc(Oc3ccnc(-c4ncc(C(F)(F)F)[nH]4)c3)ccc21 [CHIR265] (first compound 0.2 µM, partner dose 0.08 µM) was tested. Which cell count did it give?
The cell count was 80.5%.

For CC(=O)O[C@@]12CO[C@@H]1C[C@H](O)[C@@]1(C)C(=O)[C@H](O)C3=C(C)[C@@H](OC(=O)[C@H](O)[C@@H](NC(=O)OC(C)(C)C)c4ccccc4)C[C@@](O)([C@@H](OC(=O)c4ccccc4)[C@H]21)C3(C)C [Docetaxel] + Nc1ccn([C@@H]2O[C@H](CO)[C@@H](O)C2(F)F)c(=O)n1 [gemcitabine] (first compound 0.0001 µM, partner dose 0.0004 µM), which cell count is on record?
The cell count was 52.4%.

Nc1ncn([C@H]2C[C@H](O)[C@@H](CO)O2)c(=O)n1 [decitabine] + O=C(O)C(=O)Nc1sc2c(c1C(=O)O)CCNC2 [TCS401] (first compound 0.1 µM, partner dose 1.66667 µM) was tested. Which cell count did it give?
Its cell count is 78.8%.

CO[C@H]1C[C@@H]2CC[C@@H](C)[C@@](O)(O2)C(=O)C(=O)N2CCCC[C@H]2C(=O)O[C@H]([C@H](C)C[C@@H]2CC[C@@H](OCCO)[C@H](OC)C2)CC(=O)[C@H](C)/C=C(\C)[C@@H](O)[C@@H](OC)C(=O)[C@H](C)C[C@H](C)/C=C/C=C/C=C/1C [everolimus] + CC(=O)c1c(C)c2cnc(Nc3ccc(N4CCNCC4)cn3)nc2n(C2CCCC2)c1=O [palbociclib] (first compound 0.02 µM, partner dose 0.04 µM) was tested. Which cell count did it give?
The cell count was 71.3%.

Which cell count does the source give for CC(=O)O[C@@]12CO[C@@H]1C[C@H](O)[C@@]1(C)C(=O)[C@H](O)C3=C(C)[C@@H](OC(=O)[C@H](O)[C@@H](NC(=O)OC(C)(C)C)c4ccccc4)C[C@@](O)([C@@H](OC(=O)c4ccccc4)[C@H]21)C3(C)C [Docetaxel] + Oc1nc(-c2ccc(C(F)(F)F)cc2)nc2c1CSCC2 [XAV939] (first compound 0.0001 µM, partner dose 2 µM) here?
The cell count was 32.7%.

Nc1ncn([C@H]2C[C@H](O)[C@@H](CO)O2)c(=O)n1 [decitabine] + CO[C@@H]1[C@H](N(C)C(=O)c2ccccc2)C[C@H]2O[C@]1(C)n1c3ccccc3c3c4c(c5c6ccccc6n2c5c31)C(=O)NC4 [Midostaurin] (first compound 0.1 µM, partner dose 0.08 µM) was tested. Which cell count did it give?
Its cell count is 84%.

How did the cell count turn out when CO[C@H]1C[C@@H]2CC[C@@H](C)[C@@](O)(O2)C(=O)C(=O)N2CCCC[C@H]2C(=O)O[C@H]([C@H](C)C[C@@H]2CC[C@@H](OCCO)[C@H](OC)C2)CC(=O)[C@H](C)/C=C(\C)[C@@H](O)[C@@H](OC)C(=O)[C@H](C)C[C@H](C)/C=C/C=C/C=C/1C [everolimus] + COc1ccc(Cl)c(Nc2nc3ccccc3nc2NS(=O)(=O)c2cccc(NC(=O)C(C)(C)N)c2)c1 [XL147] (first compound 0.02 µM, partner dose 0.8 µM) was run?
Its cell count is 99.7%.

For Nc1ncn([C@H]2C[C@H](O)[C@@H](CO)O2)c(=O)n1 [decitabine] + Cc1ccc(NC(=O)c2cccc(N(C)C)c2)cc1NC(=O)c1ccc(O)cc1 [ZM336372] (first compound 0.1 µM, partner dose 2 µM), which cell count is on record?
Its cell count is 97.9%.

Which cell count does the source give for CC(=O)c1c(C)c2cnc(Nc3ccc(N4CCNCC4)cn3)nc2n(C2CCCC2)c1=O [palbociclib] + O=C(CCCCCCC(=O)Nc1ccccc1)NO [vorinostat] (first compound 0.04 µM, partner dose 0.08 µM) here?
The cell count was 69%.

For CC(=O)c1c(C)c2cnc(Nc3ccc(N4CCNCC4)cn3)nc2n(C2CCCC2)c1=O [palbociclib] + O=C(O)c1ccc(-c2c[nH]c3ncc(-c4ccccc4)cc23)cc1C1CCCC1 [GSK650394] (first compound 0.04 µM, partner dose 0.16 µM), which cell count is on record?
The cell count was 77.7%.

How did the cell count turn out when Nc1ncn([C@H]2C[C@H](O)[C@@H](CO)O2)c(=O)n1 [decitabine] + CN(C)S(=O)(=O)c1ccc2c(c1)/C(=C/c1cc3c([nH]1)CCCC3)C(=O)N2 [SU6656] (first compound 0.1 µM, partner dose 0.4 µM) was run?
Its cell count is 82.3%.

With Nc1nc(F)nc2c1ncn2[C@@H]1O[C@H](CO)[C@@H](O)[C@@H]1O [fludarabine] + N#Cc1c(O)c2c(-c3ccc(-c4ccccc4O)cc3)csc2[nH]c1=O [A769662] (first compound 0.2 µM, partner dose 2 µM) as the compound, how does the cell count read?
Its cell count is 94.8%.

For CC(=O)c1c(C)c2cnc(Nc3ccc(N4CCNCC4)cn3)nc2n(C2CCCC2)c1=O [palbociclib] + COc1ccc2c(c1)CCC1C2CCC2(C)C(NCCCCCCN3C(=O)C=CC3=O)CCC12 [U73122] (first compound 0.04 µM, partner dose 0.4 µM), which cell count is on record?
The cell count was 76.1%.

Nc1ccn([C@@H]2O[C@H](CO)[C@@H](O)C2(F)F)c(=O)n1 [gemcitabine] + C#Cc1cccc(Nc2ncnc3cc(OCCOC)c(OCCOC)cc23)c1 [erlotinib] (first compound 0.0004 µM, partner dose 0.8 µM) was tested. Which cell count did it give?
Its cell count is 67.6%.

For Nc1nc(F)nc2c1ncn2[C@@H]1O[C@H](CO)[C@@H](O)[C@@H]1O [fludarabine] + COc1ccc(COc2ccc(Cc3cnc(N)nc3N)cc2OC)cc1 [GW2580] (first compound 0.2 µM, partner dose 1 µM), which cell count is on record?
The cell count was 101%.
